Measurements published in PubChem BioAssay AID1347417 (National Center for Advancing Translational Sciences (NCATS), 2020).
About 5,300 (4.4%) of roughly 120,000 compounds were called active. Inconclusive means that the source gave no clear call. Such entries were picked first, then a sample of the others. Calls follow the shape of the dose curve; as a rule, active = well fitted inhibition curve with a large enough effect; inconclusive = small, poorly fitted or top-dose-only effect; inactive = no such curve, though single readings can be large or run the other way. Potencies beside an inconclusive call are fits to weak or partial responses and may not hold up.

assay: qHTS Primary assay for Inhibitors of Plasmodium falciparum Dd2 growth in vitro; also: nearly all actives have a fitted effect of over 65% in size;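 as to activity, negative = inhibition: plate controls were DMSO vehicle for no effect and reference drug for full effect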; conditions: P. falciparum Dd2 growth, SYBR Green, 72 h; activity, negative = inhibition: at 28.9 µM (top of the series) unless noted; series mostly up to 28.9 µM
Procedure, shortened: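 Readout: SYBR Green fluorescence, 485 nm excitation, 535 nm emission, after ~16 h lysis at 37C. Before that, Dd2-infected red cells (2.5% hematocrit) grew 72 h with compound, 29 uM top final concentration.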
Potency is read from the fitted curve at half-maximal effect; tags tell the direction and shape of the fitted curve.

Row | Structure (SMILES) | Potency | activity, negative = inhibition
1 | Cc1ccc(CNC(=O)CSC2=Nc3ccccc3N=C(c3ccc(F)cc3)C2)cc1 | inconclusive: 17.8 µM [inhibitor, single point] | –
2 | COCCOCc1nc(C2CCN(C(=O)c3[nH]nc4c3CCc3cc(OC)ccc3-4)CC2)no1 | inconclusive: 12.6 µM [inhibitor, partial curve, poor fit] | –
3 | CCOc1ccc(NC(=O)CCc2c(C)nc3c(-c4ccccc4)c(C)nn3c2C)cc1 | inconclusive: 7.94 µM [inhibitor, single point] | –
4 | O=C(NC1CCN(c2cc(-c3cccs3)[nH]n2)CC1)c1ccccc1Cl | inactive | –
5 | COc1cccc(NC(=O)N[C@H]2CCN(C(=O)CC(C)(C)C)[C@@H]2C(=O)N[C@@H](CCCNC(=O)CC(C)(C)C)C(N)=O)c1 | inactive | –
6 | COc1ccc(CC(=O)N2CCc3cc(OC)c(OC)cc3C2COc2ccc3c(C)cc(=O)oc3c2)cc1OC (stereo not given) | inconclusive: 3.98 µM [inhibitor, single point] | –
7 | O=C(c1ccc(C(F)(F)F)cc1)N1CCCC2(CC(c3cccc(C(F)(F)F)c3)=NO2)C1 (stereo not given) | inactive | –
8 | O=C(C1CCC(=O)N(C2CCCC2)C1)N1CCN(c2nccs2)CC1 (stereo not given) | inactive | –
9 | COc1ccc(-c2ccnc3nc(-c4cccs4)nn23)cc1 | inconclusive: 12.6 µM [inhibitor, single point] | –
10 | Cc1ccccc1N(C)C1CN(Cc2cncs2)C1 | inconclusive: 2.82 µM [inhibitor, full curve, poor fit] | –
11 | O=C(NCCn1cc(SCc2ccc(F)cc2)c2ccccc21)c1cccs1 | inconclusive: 11.2 µM [inhibitor, single point] | –
12 | CCn1cc(C(=O)N2CCN(c3cc(Cl)ccc3C)CC2)c(=O)c2cc(S(=O)(=O)N3CCCCC3)ccc21 | inconclusive: 0.0224 µM [inhibitor, full curve, poor fit] | –
13 | Cc1ccccc1C(=O)N1c2ncnn2C2(CCCCC2)[C@@H]2CCCC[C@@H]21 | inconclusive: 17.8 µM [inhibitor, single point] | –
14 | CN1CCN(c2ccc(-c3cc4c(ccn4C)c(C(=O)NCC4CCC(=O)N4)n3)cc2)CC1 (stereo not given) | inactive | –
15 | COCCOCc1nc(C2CCN(C(=O)Nc3cccc(Cl)c3)CC2)no1 | inactive | –
16 | O=C(CC1C(=O)NCCN1Cc1cccc(Oc2ccccc2)c1)NCc1ccoc1 (stereo not given) | inactive | –
17 | O=C(Nc1cccc(Cl)c1)[C@@H]1C[C@@H](c2ccc(F)cc2)N([S+](=O)([O-])c2ccccc2)C1 | inactive | –
18 | CC1=C[C@@H](CN2CCC[C@H]2CO)[C@H](C(C)C)C[C@H]1Cc1nnc(-c2ccc(N(C)C)cc2)o1 | active: 1.41 µM | –
19 | Cn1ccnc1C(=O)N1CCCCCCNC(=O)[C@@H]2C[C@@H](C(=O)N3CCc4ccccc4C3)C[C@@H]21 | inconclusive: 3.98 µM [inhibitor, partial curve, poor fit] | –
20 | COc1ccc(-c2cc3nc4c(c(=O)n3[nH]2)CN(C(=O)c2cc(CN3CCOCC3)on2)CC4)cc1 | inconclusive: 1.26 µM [inhibitor, partial curve, poor fit] | –
21 | Cn1nnnc1SCCNCc1ccc(Cl)c(Cl)c1 | inactive | –
22 | O=c1[nH]c(C2CCN(Cc3ccccc3C(F)(F)F)CC2)nn1Cc1ccccc1 | inconclusive: 8.91 µM [inhibitor, single point] | –

Row | Structure (SMILES) | Potency | activity, negative = inhibition
23 | C=C[C@H]1CN2CC[C@H]1C[C@@H]2CNC(=O)c1ccc(C(F)(F)F)cc1 | inconclusive: 3.55 µM [inhibitor, full curve, poor fit] | –
24 | CCC(C(=O)Nc1ccc2ncnc(N3CCCC3)c2c1)c1ccccc1 (stereo not given) | inconclusive: 11.2 µM [inhibitor, partial curve] | –
25 | CCNC(=O)NC[C@@H]1C=C(C)[C@H](CC(=O)NCc2ccccn2)C[C@H]1C(C)C | inactive | –
26 | CCc1ccc(N2CC(c3noc(-c4cc(F)ccc4F)n3)CC2=O)cc1 (stereo not given) | inactive | –
27 | CNC(=O)N1C[C@@H](Oc2ccccc2)C[C@H]1C(=O)N1CCOCC1 | inactive | –
28 | CCc1ccc(NC(=O)C(Cc2ccccc2)NS(=O)(=O)c2ccc3c(c2)c(=O)n(C)c(=O)n3C)cc1 (stereo not given) | inconclusive: 8.91 µM [inhibitor, single point] | –
29 | COc1ccc(-n2ccnc2CN2CCOC(c3cccnc3)C2)cc1 (stereo not given) | inactive | –
30 | CC(C)c1ccc(CNc2ncncc2-c2nc(-c3ccccc3)no2)cc1 | inconclusive: 17.8 µM [inhibitor, single point] | –
31 | O=C(NCCc1ccccc1)c1ccc(Cn2c(SCc3ccccc3)nc3cccnc32)cc1 | inconclusive: 11.2 µM [inhibitor, single point] | –
32 | CCc1csc(CNC(=O)c2ccc(N(C)Cc3cccs3)nc2)n1 | inactive | –
33 | COc1ccc(S(=O)(=O)NC[C@H]2C[C@@H]3CCN2C[C@@H]3CN(C)Cc2ccccc2)cc1 | active: 2 µM | –
34 | CCN(C(=O)CSc1nc2ccccc2nc1Cc1ccc(F)cc1)c1cccc(C)c1 | inconclusive: 17.8 µM [inhibitor, partial curve, poor fit] | –
35 | O=C(c1ccc(Cl)nc1)N1CCc2nc(-c3ccccc3)nc(-c3ccc(Cl)cc3)c2C1 | inactive | –
36 | Cc1nn(-c2ccccc2[N+](=O)[O-])c(C)c1[C@@H]1C=C[C@@H](NCc2ccc(F)cc2)C1 | inconclusive: 2.82 µM [inhibitor, partial curve, poor fit] | –
37 | COc1cccc(-c2noc(CC3CCN(C(=O)c4ccc(F)cc4)CC3)n2)c1 | inconclusive: 17.8 µM [inhibitor, single point] | –
38 | O=S(=O)(NC[C@H]1C[C@@H]2CCN1C[C@@H]2CN1CCN(c2ccccn2)CC1)c1cccs1 | inconclusive: 5.01 µM [inhibitor, partial curve, poor fit] | –
39 | O=C(NCCCN1CCCC1=O)c1ccc(-c2ncc3cnc(-c4ccccc4)cn23)cc1 | inconclusive: 10 µM [inhibitor, partial curve] | –
40 | CCC(C(=O)Nc1ccc(C)c(Cl)c1)n1c(=O)c(-c2ccccc2NC(C)=O)nc2ccccc21 (stereo not given) | inconclusive: 17.8 µM [inhibitor, single point] | –
41 | O=C(C1CC1)N1CCC(N2C(=O)C(O)C23CCCCC3)CC1 (stereo not given) | inconclusive: 20 µM [inhibitor, single point] | –
42 | COc1cc(CN2C[C@@H](CO)[C@H](C3CCN(C(C)=O)CC3)C2)ccc1F | inconclusive: 7.08 µM [inhibitor, partial curve, poor fit] | –
43 | Cn1c(C(=O)N2CCC(N3CCCCC3)CC2)cc2c1CCN(Cc1cccc(F)c1)C2 | inconclusive: 1.26 µM [inhibitor, partial curve, poor fit] | –
44 | CCCNC(=O)OC[C@H]1C[C@@H]2CCN1C[C@@H]2c1cc(C(CC)CC)nc(-c2ccncc2)n1 | active: 1.41 µM | –

Row | Structure (SMILES) | Potency | activity, negative = inhibition
45 | C#CCNC(=O)c1cc(-c2ccccc2OC)c2cnn(C)c2n1 | inconclusive: 10 µM [inhibitor, single point] | –
46 | COC(=O)C1=C(C)N=C2SC=C(CC(=O)NCc3ccccc3)N2C1c1cccc(F)c1 (stereo not given) | inconclusive: 1.41 µM [inhibitor, partial curve, poor fit] | –
47 | O=C(CCn1cnnn1)N1CCCC(CCc2cccc(C(F)(F)F)c2)C1 (stereo not given) | inactive | –
48 | CN(C)c1ncccc1CNC(=O)COc1ccccc1Cl | inactive | –
49 | CCCCCn1c(CNC(=O)c2ccc(F)cc2)nc2ccccc21 | inconclusive: 17.8 µM [inhibitor, single point] | –
50 | Cc1cnc(C2CCOCC2)n1C1CCCN(Cc2ccc(C#N)cc2)C1 (stereo not given) | inconclusive: 12.6 µM [inhibitor, single point] | –
51 | Cn1cccc1C(=O)C(=O)N1C[C@H](c2cc(F)cc(F)c2)[C@@H]2[C@H]1C1CCN2CC1 | inconclusive: 12.6 µM [inhibitor, partial curve, poor fit] | –
52 | CCc1cn(C[C@H](NCCC(C)C)C(=O)O)c(=O)[nH]c1=O | inactive | –
53 | Fc1ccc(CN2CC(Oc3ccc(F)cc3F)C2)cc1 | inconclusive: 6.31 µM [inhibitor, partial curve, poor fit] | –
54 | O=C(NCc1ccc(F)c(F)c1)C1CCC(=O)N(CC2CCCCC2)C1 (stereo not given) | inconclusive: 11.2 µM [inhibitor, partial curve] | –
55 | CCOc1ccc(OCC)c(NC(=O)c2csc3c2CCCC3)c1 | inconclusive: 17.8 µM [inhibitor, single point] | –
56 | CCOC(=O)C1(Cc2ccccc2C(F)(F)F)CCN(C(C)Cc2cccc(C)n2)CC1 (stereo not given) | active: 12.6 µM | –
57 | CCn1cc(S(=O)(=O)N2CCCC(Cc3ncc(C)n3CC3CC3)C2)cn1 (stereo not given) | inconclusive: 5.62 µM [inhibitor, partial curve, poor fit] | –
58 | COc1cc(NC(=O)N2CCC(CN3CCc4ccccc4C3)CC2)cc(OC)c1 | inactive | –
59 | COc1ccc(-n2nc(C)c([C@@H]3C=C[C@@H](NCc4ccccc4)C3)c2C)cc1 | active: 2.82 µM | –
60 | Cc1nn(-c2ccc(F)cc2)c(Oc2ccc(F)cc2F)c1CCC(=O)N1CCCC1 | inactive | –
61 | O=C(c1ccccc1F)N1CC(Oc2cccc(-c3nc(-c4ccccc4)no3)c2)C1 | – | inactive: 36.6% [at 5.79 µM]
62 | CCOc1ccc(NC(=O)Cn2cc(C(=O)c3ccccc3)c(=O)c3cc4c(cc32)OCO4)cc1 | inactive | –
63 | COc1ccc(OCc2nc(C(=O)N3CCCC(C(C)(C)O)C3)co2)cc1 (stereo not given) | inactive | –
64 | Cc1ccc(Cn2c(=O)n(-c3ccc(C)c(C)c3)c(=O)c3c(C)c(C)sc32)cc1 | inconclusive: 10 µM [inhibitor, single point] | –
65 | CSCc1noc(CN2CCCC(CO)(CC=C(C)C)C2)n1 (stereo not given) | inconclusive: 17.8 µM [inhibitor, partial curve, poor fit] | –
